# According to the supplement of paper PMC8728848:
# The list shows a part of the results.
# Tests used:
# Test in all cases: glycan array binding signal (z-score within array); higher = stronger binding
# Details in all cases: glycan notation: IUPAC condensed, linker removed
# [1] = target: Gal(a1-2)Gal
# Summary of the method: (§1)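 From the Consortium for Functional Glycomics database, 3228 arrays were curated, keeping only those whose protein sequence was available. Binding is given as a within-array Z-score averaged across arrays sharing a protein sequence and across linkers. Negative Z-scores can be read as non-binding.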
# [2] = target: Gal(a1-3)Gal
# Summary of the method: as §1
# [3] = target: Gal(a1-3)Gal(b1-3)GlcNAc
# Summary of the method: as §1
# [4] = target: Gal(a1-3)Gal(b1-4)Glc
# Summary of the method: as §1
# [5] = target: Gal(a1-3)Gal(b1-4)GlcNAc
# Summary of the method: as §1
# [6] = target: Gal(a1-3)Gal(b1-4)[Fuc(a1-3)]GlcNAc
# Summary of the method: as §1
# [7] = target: Gal(a1-3)GalNAc
# Summary of the method: as §1
# [8] = target: Gal(a1-3)[Gal(a1-4)]Gal(b1-4)GlcNAc
# Summary of the method: as §1
# [9] = target: Gal(a1-4)Gal(b1-4)Glc
# Summary of the method: as §1
# [10] = target: Gal(a1-4)Gal(b1-4)GlcNAc
# Summary of the method: as §1
# [11] = target: Gal(a1-4)GlcNAc
# Summary of the method: as §1
# [12] = target: Gal(a1-6)Glc
# Summary of the method: as §1
# [13] = target: Gal(b1-2)Gal
# Summary of the method: as §1
# [14] = target: Gal(b1-3)Gal
# Summary of the method: as §1
# [15] = target: Gal(b1-3)GalNAc
# Summary of the method: as §1
# [16] = target: Gal(b1-3)GalNAc(b1-3)Gal(a1-4)Gal(b1-4)Glc
# Summary of the method: as §1
# [17] = target: Gal(b1-3)GalNAc(b1-4)Gal(b1-4)Glc
# Summary of the method: as §1
# [18] = target: Gal(b1-3)GalNAc(b1-4)[Neu5Ac(a2-3)]Gal(b1-4)Glc
# Summary of the method: as §1
# [19] = target: Gal(b1-3)GlcNAc
# Summary of the method: as §1
# [20] = target: Gal(b1-3)GlcNAc(b1-3)Gal(b1-4)Glc
# Summary of the method: as §1
# [21] = target: Gal(b1-3)GlcNAc(b1-3)Gal(b1-4)GlcNAc
# Summary of the method: as §1
# [22] = target: Gal(b1-3)[Fuc(a1-4)]GlcNAc
# Summary of the method: as §1
# [23] = target: Gal(b1-3)[Fuc(a1-4)]GlcNAc(b1-3)Gal(b1-4)GlcNAc
# Summary of the method: as §1
# [24] = target: Gal(b1-3)[Fuc(a1-4)]GlcNAc(b1-3)Gal(b1-4)[Fuc(a1-3)]GlcNAc
# Summary of the method: as §1
# [25] = target: Gal(b1-3)[GlcNAc(b1-6)]GalNAc
# Summary of the method: as §1
# [26] = target: Gal(b1-3)[Neu5Ac(a2-6)]GalNAc
# Summary of the method: as §1
# [27] = target: Gal(b1-3)[Neu5Ac(a2-6)]GlcNAc(b1-6)Gal(b1-4)Glc
# Summary of the method: as §1
# [28] = target: Gal(b1-3)[Neu5Ac(b2-6)]GalNAc
# Summary of the method: as §1
# [29] = target: Gal(b1-4)GalNAc(a1-3)[Fuc(a1-2)]Gal(b1-4)GlcNAc
# Summary of the method: as §1
# [30] = target: Gal(b1-4)GalNAc(b1-3)[Fuc(a1-2)]Gal(b1-4)GlcNAc
# Summary of the method: as §1
# [31] = target: Gal(b1-4)Glc
# Summary of the method: as §1
# [32] = target: Gal(b1-4)Glc6S
# Summary of the method: as §1
# [33] = target: Gal(b1-4)GlcNAc
# Summary of the method: as §1
# [34] = target: Gal(b1-4)GlcNAc(b1-2)Man(a1-3)[Gal(b1-4)GlcNAc(b1-2)Man(a1-6)]Man(b1-4)GlcNAc(b1-4)GlcNAc
# Summary of the method: as §1
# [35] = target: Gal(b1-4)GlcNAc(b1-3)Gal(b1-4)Glc
# Summary of the method: as §1
# [36] = target: Gal(b1-4)GlcNAc(b1-3)Gal(b1-4)GlcNAc
# Summary of the method: as §1
# [37] = target: Gal(b1-4)GlcNAc(b1-3)Gal(b1-4)GlcNAc(b1-3)Gal(b1-4)GlcNAc
# Summary of the method: as §1
# [38] = target: Gal(b1-4)GlcNAc(b1-3)Gal(b1-4)[Fuc(a1-3)]GlcNAc(b1-3)Gal(b1-4)[Fuc(a1-3)]GlcNAc
# Summary of the method: as §1
binder,measurement,setting,value
LKPARMA (Neurospora crassa) (protein) MSFHVTAEDARRIEVRDNRTILFARLRREDGEWNDASYELDQIIGNNDGHFQWGGGQNFTETAEDIRFHPKEGAAEQPILRARLRDCNGEFHDRDVNLTEIVENVNGEFQAKF,glycan array binding signal (z-score),[1],-0.249
same,glycan array binding signal (z-score),[2],-0.223
same,glycan array binding signal (z-score),[3],-0.252
same,glycan array binding signal (z-score),[4],-0.25
same,glycan array binding signal (z-score),[5],-0.249
same,glycan array binding signal (z-score),[6],-0.251
same,glycan array binding signal (z-score),[7],-0.248
same,glycan array binding signal (z-score),[8],-0.245
same,glycan array binding signal (z-score),[9],0.2
same,glycan array binding signal (z-score),[10],0.317
same,glycan array binding signal (z-score),[11],-0.229
same,glycan array binding signal (z-score),[12],2.85
same,glycan array binding signal (z-score),[13],-0.251
same,glycan array binding signal (z-score),[14],-0.246
same,glycan array binding signal (z-score),[15],-0.251
same,glycan array binding signal (z-score),[16],0.128
same,glycan array binding signal (z-score),[17],-0.25
same,glycan array binding signal (z-score),[18],-0.25
same,glycan array binding signal (z-score),[19],-0.249
same,glycan array binding signal (z-score),[20],4.93
same,glycan array binding signal (z-score),[21],-0.249
same,glycan array binding signal (z-score),[22],-0.251
same,glycan array binding signal (z-score),[23],-0.246
same,glycan array binding signal (z-score),[24],-0.249
same,glycan array binding signal (z-score),[25],-0.251
same,glycan array binding signal (z-score),[26],-0.234
same,glycan array binding signal (z-score),[27],5.09
same,glycan array binding signal (z-score),[28],-0.251
same,glycan array binding signal (z-score),[29],-0.149
same,glycan array binding signal (z-score),[30],-0.246
same,glycan array binding signal (z-score),[31],-0.222
same,glycan array binding signal (z-score),[32],-0.25
same,glycan array binding signal (z-score),[33],-0.252
same,glycan array binding signal (z-score),[34],-0.245
same,glycan array binding signal (z-score),[35],1.9
same,glycan array binding signal (z-score),[36],-0.252
same,glycan array binding signal (z-score),[37],-0.252
same,glycan array binding signal (z-score),[38],-0.087
